Laboratory results as given in the BET-seq Pho4 binding data (Le et al. 2018).
Some of the results follow. These are noisy estimates, calculated here from bound and input reads.

Target: T1, Pho4 (S. cerevisiae) (UniProt P07270)
T1 sequence: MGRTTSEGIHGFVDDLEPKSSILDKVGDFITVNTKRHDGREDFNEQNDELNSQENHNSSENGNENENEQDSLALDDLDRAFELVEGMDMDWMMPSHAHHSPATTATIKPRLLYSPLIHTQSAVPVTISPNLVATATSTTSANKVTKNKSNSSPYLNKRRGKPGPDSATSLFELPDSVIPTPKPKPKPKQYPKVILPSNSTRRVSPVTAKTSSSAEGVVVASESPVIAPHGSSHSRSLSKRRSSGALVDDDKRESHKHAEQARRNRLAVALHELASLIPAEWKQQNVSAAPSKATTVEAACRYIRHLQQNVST
Test: relative binding free energy (BET-seq); higher = weaker binding
Details: reference: library average

Sequence	relative binding free energy [kcal/mol]
CATAGCACGTGGGTGT	-0.35
TTGTACACGTGTGCGG	0.08
GGTGGCACGTGTGACA	-0.02
TCATACACGTGGTGGG	-0.08
ATTGGCACGTGGGGAG	-0.29
TGAGACACGTGGTTTC	0.08
TGTGCCACGTGGATCG	-0.12
GTTATCACGTGGGTAA	0
TGAGTCACGTGGGGCG	-0.04
TTTGACACGTGTATAA	-0.08
TTTGTCACGTGGAAGA	0.29
TAGGTCACGTGCAAGG	0.13
TTCGACACGTGGGATG	0.05
AAAGGCACGTGAGTGT	0.09
GAGATCACGTGGTAGG	0.05
AAAAACACGTGTTGTT	0
GGTTACACGTGCTTGA	0.06
ATGGACACGTGGTCAT	-0.01
GTAAACACGTGGGCGT	-0.09
TGTTACACGTGCATAT	0.06
TAGTACACGTGTTACG	0.17
AAGTGCACGTGGCGCG	-0.15
ATTAGCACGTGAGAGG	0.15
ATGAGCACGTGCGGTA	-0.05
CATGACACGTGGTGTA	-0.07
TTTTTCACGTGTTATT	0.32

Sequence	relative binding free energy [kcal/mol]
AGCTGCACGTGTGGGG	0
TGTATCACGTGGGCTA	-0.01
GACTTCACGTGTAGGT	0.42
GATTTCACGTGATATA	0.42
GGGTCCACGTGTATAG	0.13
GAGGGCACGTGTAATG	0.18
GGGATCACGTGTATTG	0.13
GGCAACACGTGTGGTT	0.15
GCAAGCACGTGGGATG	-0.16
TTGATCACGTGGGTGT	0.06
GGACTCACGTGGAGGT	0.18
CGTAGCACGTGTTTGT	-0.1
AGGCTCACGTGCGTTT	0.21
TTAGGCACGTGACGGG	-0.05
TGTAACACGTGGGTGG	-0.07
AGGTTCACGTGTTGAA	0.19
GTTAGCACGTGTCGGG	0.11
TCCGTCACGTGGTGGG	-0.01
ACGGGCACGTGCTAGG	-0.08
ATTAGCACGTGGTTGT	-0.06
GGGGACACGTGTGTTC	0.16
GTTGACACGTGAGAGA	0.27
AGAGGCACGTGTAGTA	-0.03
TTATGCACGTGGGATC	-0.17
GAGGGCACGTGCGGGG	-0.07
GGGTGCACGTGAGCGG	0.26

Sequence	relative binding free energy [kcal/mol]
TAATACACGTGTGCGG	0.06
ATGAGCACGTGTTTGC	-0.21
CTAGTCACGTGAGGTT	0.35
GTAGGCACGTGGATAA	0.01
AGTTACACGTGTCTGG	0.11
AGAAGCACGTGTGCGT	-0.01
TGAGGCACGTGTCGGA	0.02
GAAGTCACGTGGCAGG	0.11
TTGATCACGTGGTGAA	0.14
TCGATCACGTGTATTG	0.04
TCGGGCACGTGAGGTA	0.08
TTGATCACGTGAAGGT	0.35
CTCGTCACGTGTCGGG	0.09
CCGTGCACGTGTGGTG	-0.06
CTAAACACGTGGTGTG	-0.16
GCGTGCACGTGTTAGT	-0.05
TGCGTCACGTGGTGGG	0.04
TTGGGCACGTGGTTGA	-0.19
ATGTTCACGTGTTGCT	0.25
TTTGCCACGTGGAATT	0.05
TGGGACACGTGAGTGA	0.35
ACATTCACGTGGTGTA	0.07
TTTTACACGTGGGAAA	-0.03
TGAGGCACGTGTAATT	0.05
AGCGGCACGTGCGTGT	-0.33
TCAGTCACGTGTATTT	0.16

Sequence	relative binding free energy [kcal/mol]
TCGAACACGTGTGGTG	0.02
GGGCTCACGTGGGGTG	0.03
GGCGTCACGTGCGAGG	-0.03
GTTATCACGTGTCGAT	0.25
GTGCGCACGTGGTATG	-0.11
ATGTCCACGTGATAGT	0.24
ATGTACACGTGTCAGT	0.03
ACTGGCACGTGATTAG	0.03
GGGGGCACGTGGAATT	0.08
GTGTACACGTGAGGGG	0.37
AGGGTCACGTGTCTAA	0.11
CTGTCCACGTGTAGGG	0.06
TTATGCACGTGTTTGA	-0.06
GTTGGCACGTGGGAAA	-0.06
GGATGCACGTGGCAGG	-0.13
GATGACACGTGTATTT	0.14
CGATGCACGTGATGTT	0.04
AAATACACGTGGTGTG	-0.04
GTTCTCACGTGGGATG	0.18
TATGCCACGTGTTTGG	-0.24
ACTTTCACGTGGGAGG	0.11
TGCGACACGTGGAAGG	0.08
GTTAGCACGTGATTTT	0.24
TGTGTCACGTGCGGTA	0.14
TTTAACACGTGCTTGT	-0.07
GGTGTCACGTGCAAAG	0.05

Sequence	relative binding free energy [kcal/mol]
GTGCACACGTGGGATG	-0.05
TATGACACGTGAAAGG	0.41
TGTTGCACGTGTAAGC	0.1
AGGTTCACGTGGCTAA	0.12
AATGTCACGTGGCGGA	0.06
AAGTTCACGTGGTCTT	0.27
GGAGGCACGTGCGTAG	-0.05
AGTTTCACGTGTGTTG	0.37
TATTACACGTGAGACG	0.39
TTTTGCACGTGGGGTG	-0.13
ATTACCACGTGGGGAA	0.07
GTTAGCACGTGGTTTC	0.01
TGTGACACGTGCGGGA	-0.05
TATTGCACGTGTGTAG	0.01
GCAGGCACGTGAAGTG	0.12
TAGGTCACGTGGTTAA	0.09
TAGTTCACGTGCTTTG	0.19
AGGCGCACGTGAGGGC	0.07
GGGTTCACGTGGTATC	0.49
GAGGACACGTGGTCAG	0.09
CAATGCACGTGGGTAG	-0.17
GGTGGCACGTGCCTGA	-0.1
GAGTTCACGTGGAAGA	0.4
GGAGACACGTGAAGGT	0.29
GTGTACACGTGATGTT	0.21
AGGTGCACGTGAAGAG	0.14

Sequence	relative binding free energy [kcal/mol]
GCTGGCACGTGAAAGG	0.1
TGGGCCACGTGATTAA	0.18
GGCTTCACGTGATGGG	0.41
TTAGGCACGTGCGGTT	-0.18
TTATACACGTGTTGGC	0.04
CGGGTCACGTGCTTGT	0.15
AAGATCACGTGAGGGC	0.29
TACGTCACGTGTTTAG	0.09
TATTCCACGTGGTGTA	-0.01
TTAAGCACGTGCTTGG	-0.14
GTGGACACGTGCATTT	0.2
GATTCCACGTGTGGAT	0.24
AGGGGCACGTGGAAAG	-0.08
AGTTGCACGTGATATA	0.05
TGACACACGTGTTTTT	0.05
GTTGGCACGTGGTCCT	-0.22
GATGTCACGTGCGGTC	0.23
TTGATCACGTGAGTGC	0.51
ATCATCACGTGTATGT	-0.01
AATAGCACGTGTGGAT	-0.02
CTAGTCACGTGTTATA	0.23
AAATACACGTGGATGT	0.11
ATGGTCACGTGTTTCT	0.01
CTGGGCACGTGAGTCT	0.23
CTTAACACGTGTGTGG	0.06
GGATTCACGTGGGATG	0.28

Sequence	relative binding free energy [kcal/mol]
AATTACACGTGGTTAA	0.07
ATTGTCACGTGGAATA	0
CTGTACACGTGGATTT	0.09
GAGATCACGTGCTGGT	0.04
ATGAACACGTGGGAGA	-0.04
AGAGGCACGTGCGTAG	-0.3
TGTGACACGTGTCTGT	-0.02
TAGTGCACGTGGTCGA	-0.15
GGTATCACGTGAGTGG	0.33
AGTTCCACGTGGGGGT	-0.14
TAATTCACGTGGTCTG	0.26
ATTGACACGTGGAGAT	-0.03
GGGTGCACGTGATGAG	0.21
GTATACACGTGGAGTT	0.07
TGGTACACGTGTTGCG	-0.07
GGTGACACGTGCGGCT	0
GGGTGCACGTGCGGTG	-0.09
GCGTTCACGTGAAGTT	0.4
GTTTCCACGTGCGTGG	0.04
TGTAGCACGTGTGCGG	-0.04
CGGGGCACGTGGCGGC	-0.14
AAACTCACGTGGTGGG	0.23
AGATGCACGTGAAGTG	0.11
AAGGTCACGTGGTTAG	-0.03
ATAGTCACGTGTCGAG	0.18
ATTTACACGTGTAGAT	0.19

Sequence	relative binding free energy [kcal/mol]
CTTTGCACGTGTAAGA	0.22
ATGGCCACGTGGTAGG	-0.16
AAGGTCACGTGCTGGA	-0.05
CGGTTCACGTGGGTTG	0.13
TTAGGCACGTGCTAAT	-0.13
TTTGACACGTGCTTGT	-0.1
AGGAGCACGTGAGGGA	0
TTGTTCACGTGTAGTA	0.23
CAGTTCACGTGCGGTG	0.35
ATTTTCACGTGGCATG	0.13
TATATCACGTGGAGGC	0.16
CGGGTCACGTGCGGTT	0.04
AGATTCACGTGTAGCT	0.26
GGAGACACGTGGGAGA	0.11
GGAGACACGTGAGTGA	0.16
TTTCTCACGTGGAATG	0.39
TCTTACACGTGGAGAG	0.35
TGTTTCACGTGCGTGT	0.19
TGTGTCACGTGTTGAC	0
AGTGACACGTGGGAGC	-0.12
TTCGTCACGTGGTCGG	0
TTAATCACGTGGTATC	0.02
TTTGGCACGTGAGATT	0.3
GTTATCACGTGACTTG	0.36
TGAATCACGTGATTGA	0.3
AGGGCCACGTGGGGCT	-0.27

Sequence	relative binding free energy [kcal/mol]
AGGTTCACGTGAGTTC	0.4
GTGTTCACGTGGCGTG	0.13
TAGATCACGTGGGAGG	0.02
AGAGGCACGTGCGGAG	-0.2
AGTTTCACGTGCGAAT	0.29
ATGGTCACGTGTAGTA	0.17
TAGTGCACGTGTAGTG	0.02
GCTTTCACGTGTCGGG	0.33
GTTAACACGTGGGCAG	-0.1
CTAGACACGTGGGGCG	-0.18
AGGTTCACGTGGGATA	0.24
CTTGTCACGTGTTTGG	0.1
TGGGTCACGTGTAACG	0.16
TTTCGCACGTGCGGTA	-0.03
GGGTCCACGTGGTAGG	0.13
TGTGGCACGTGAGTAA	0.24
AGGTTCACGTGTGGGG	0.35
AGGTGCACGTGGTTAC	-0.09
TTAAGCACGTGATGGG	0.02
TTGTGCACGTGGTGAT	-0.06
GTATGCACGTGTGTCA	0.22
TGGTGCACGTGGGGCC	-0.17
